Experimental data taken from the GPR68 mutational scans of Howard et al. (2025).

B1: GPR68, Q15743 (parent)
chain: MGNITADNSSMSCTIDHTIHQTLAPVVYVTVLVVGFPANCLSLYFGYLQIKARNELGVYLCNLTVADLFYICSLPFWLQYVLQHDNWSHGDLSCQVCGILLYENIYISVGFLCCISVDRYLAVAHPFRFHQFRTLKAAVGVSVVIWAKELLTSIYFLMHEEVIEDENQHRVCFEHYPIQAWQRAINYYRFLVGFLFPICLLLASYQGILRAVRRSHGTQKSRKDQIQRLVLSTVVIFLACFLPYHVLLLVRSVWEASCDFAKGVFNAYHFSLLLTSFNCVADPVLYCFVSETTHRDLARLRGACLAFLTCSRTGRAREAYPLGAPEASGKSGAQGEEPELLTKLHPAFQTPNSPGSGGFPTGRLA

Columns and labels:
[1] = variants of: B1; assay: cAMP reporter score (Enrich2 score, wild type = 0); higher = more signal; HEK293T, FACS bins
[2] = variants of: B1; assay: surface expression score (Enrich2 score, wild type = 0); higher = more signal; HEK293T, FACS bins

Variant	cAMP reporter score ([1]; pH 5.5)	cAMP reporter score ([1]; pH 6)	cAMP reporter score ([1]; pH 6, modulator: ogerin)	cAMP reporter score ([1]; pH 6.5, modulator: ogerin)	surface expression score [2]
C40_L41insG	-1.44	-0.793	-1.42	-0.932	-2.42
L41_L43del	-1.52	-0.469	-1.91	-1.1	-2.24
MGNITADNSSMSCTIDHTIHQTLAPVVYVTVLVVGFPANCLSAYFGYLQIKARNELGVYLCNLTVADLFYICSLPFWLQYVLQHDNWSHGDLSCQVCGILLYENIYISVGFLCCISVDRYLAVAHPFRFHQFRTLKAAVGVSVVIWAKELLTSIYFLMHEEVIEDENQHRVCFEHYPIQAWQRAINYYRFLVGFLFPICLLLASYQGILRAVRRSHGTQKSRKDQIQRLVLSTVVIFLACFLPYHVLLLVRSVWEASCDFAKGVFNAYHFSLLLTSFNCVADPVLYCFVSETTHRDLARLRGACLAFLTCSRTGRAREAYPLGAPEASGKSGAQGEEPELLTKLHPAFQTPNSPGSGGFPTGRLA [L43A]	-0.045	-0.31	-0.248	-1.25	-1.88
MGNITADNSSMSCTIDHTIHQTLAPVVYVTVLVVGFPANCLSCYFGYLQIKARNELGVYLCNLTVADLFYICSLPFWLQYVLQHDNWSHGDLSCQVCGILLYENIYISVGFLCCISVDRYLAVAHPFRFHQFRTLKAAVGVSVVIWAKELLTSIYFLMHEEVIEDENQHRVCFEHYPIQAWQRAINYYRFLVGFLFPICLLLASYQGILRAVRRSHGTQKSRKDQIQRLVLSTVVIFLACFLPYHVLLLVRSVWEASCDFAKGVFNAYHFSLLLTSFNCVADPVLYCFVSETTHRDLARLRGACLAFLTCSRTGRAREAYPLGAPEASGKSGAQGEEPELLTKLHPAFQTPNSPGSGGFPTGRLA [L43C]	0.051	-0.893	0.274	-0.02	-3.06
MGNITADNSSMSCTIDHTIHQTLAPVVYVTVLVVGFPANCLSDYFGYLQIKARNELGVYLCNLTVADLFYICSLPFWLQYVLQHDNWSHGDLSCQVCGILLYENIYISVGFLCCISVDRYLAVAHPFRFHQFRTLKAAVGVSVVIWAKELLTSIYFLMHEEVIEDENQHRVCFEHYPIQAWQRAINYYRFLVGFLFPICLLLASYQGILRAVRRSHGTQKSRKDQIQRLVLSTVVIFLACFLPYHVLLLVRSVWEASCDFAKGVFNAYHFSLLLTSFNCVADPVLYCFVSETTHRDLARLRGACLAFLTCSRTGRAREAYPLGAPEASGKSGAQGEEPELLTKLHPAFQTPNSPGSGGFPTGRLA [L43D]	-1.4	-2.05	-2.14	-0.367	-2.71
MGNITADNSSMSCTIDHTIHQTLAPVVYVTVLVVGFPANCLSEYFGYLQIKARNELGVYLCNLTVADLFYICSLPFWLQYVLQHDNWSHGDLSCQVCGILLYENIYISVGFLCCISVDRYLAVAHPFRFHQFRTLKAAVGVSVVIWAKELLTSIYFLMHEEVIEDENQHRVCFEHYPIQAWQRAINYYRFLVGFLFPICLLLASYQGILRAVRRSHGTQKSRKDQIQRLVLSTVVIFLACFLPYHVLLLVRSVWEASCDFAKGVFNAYHFSLLLTSFNCVADPVLYCFVSETTHRDLARLRGACLAFLTCSRTGRAREAYPLGAPEASGKSGAQGEEPELLTKLHPAFQTPNSPGSGGFPTGRLA [L43E]	-1.6	-0.052	-1.2	-0.993	-2.44

Scores with a large standard error are left out. Not listed are two conditions whose scores span a narrow range. In variant names, del marks residues removed and ins residues inserted between the two positions. For part of these data: The data file names ogerin without a concentration.
